Experimental data published in a collection of fitness landscapes (doi:10.1016/j.celrep.2020.107928).
In all, about 81,000 sequences were measured (“one-hybrid fitness for binding parS DNA”: median about -0.17, highest 2% from about 0.51 on). Some of the results follow.

B1: Caulobacter ParB omega fusion; a variant is named by its letters at X, in order, B8GW30 (parent)
chain: MESVVVGEPGMSEGRRGLGRGLSALLGEVDAAPAQAPGEQLGGSREAPIEILQRNPDQPRRTFREEDLEDLSNSIREKGVLQPILVRPSPDTAGEYQIVAGERAWRAAQRAGLKTVPIMVRELDDLAVLEIGIIENVQRADLNVLEEALSYKVLMEKFERTQENIAQTIGKSXSHVANXMRLLXLPDEVQSYLVSGELTAXHARAIAAAADPVALAKQIIEGGLSVRETEALARKAPNLSAGKSKGGRPPRVKDTDTQALESDLSSVLGLDVSIDHRGSTGTLTITYATLEQLDDLCNRLTRGI

Variants of: B1
Test: one-hybrid fitness for binding parS DNA (scaled: cognate 1, non-cognate 0); higher = stronger binding
Settings: with parS DNA site
In short: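 The reporter was HIS3, with the binding site 19 bp from the promoter, in E. coli USO used for bacterial one-hybrid selection of Caulobacter ParB libraries with four specificity codons randomised. Growth was on M9 lacking histidine, with 0.1 mM IPTG and 5 mM 3-AT, for 48 hours at 37°C. Illumina sequencing covered plasmids before and after selection; three replicate libraries were pooled and variants with under 10 reads dropped. A fitness score is the log change in variant-to-wild-type read ratio, rescaled to the cognate and non-cognate references.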

Row | Variant | one-hybrid fitness for binding parS DNA
1 | YHSD | ≤ 0.2
2 | LQNT | ≤ 0.2
3 | PGFG | ≤ 0.2
4 | KKRP | ≤ 0.2
5 | HYHT | ≤ 0.2
6 | CATP | ≤ 0.2
7 | TFPH | ≤ 0.2
8 | PLRF | ≤ 0.2
9 | GCKG | ≤ 0.2
10 | AAQI | ≤ 0.2
11 | VNLN | ≤ 0.2
12 | QAPS | ≤ 0.2
13 | IRQE | ≤ 0.2
14 | QFIG | ≤ 0.2
15 | SAEI | ≤ 0.2
16 | DVRM | ≤ 0.2
17 | VKAV | ≤ 0.2
18 | VVKP | ≤ 0.2
19 | LSGY | ≤ 0.2
20 | QNLP | ≤ 0.2
21 | TLAF | ≤ 0.2
22 | IATC | ≤ 0.2
23 | CYVF | ≤ 0.2
24 | YIYF | ≤ 0.2
25 | RMLD | ≤ 0.2

Row | Variant | one-hybrid fitness for binding parS DNA
26 | IRWY | ≤ 0.2
27 | GRYG | ≤ 0.2
28 | GHCG | ≤ 0.2
29 | GMKF | ≤ 0.2
30 | VDRF | ≤ 0.2
31 | PGFS | ≤ 0.2
32 | SEAC | ≤ 0.2
33 | LRHA | ≤ 0.2
34 | GTWD | ≤ 0.2
35 | TDKV | ≤ 0.2
36 | SEEV | ≤ 0.2
37 | LIFS | ≤ 0.2
38 | AIHE | ≤ 0.2
39 | KVKQ | ≤ 0.2
40 | QWDR | ≤ 0.2
41 | IIEL | ≤ 0.2
42 | NVYS | ≤ 0.2
43 | RQWC | 0.797
44 | CTGT | ≤ 0.2
45 | HNTR | ≤ 0.2
46 | CMAC | ≤ 0.2
47 | NLCG | ≤ 0.2
48 | TQYM | ≤ 0.2
49 | FQRV | ≤ 0.2
50 | GLHT | ≤ 0.2

Row | Variant | one-hybrid fitness for binding parS DNA
51 | HRGL | ≤ 0.2
52 | WVFR | ≤ 0.2
53 | MYCF | ≤ 0.2
54 | NINR | ≤ 0.2
55 | CRYE | ≤ 0.2
56 | RCCG | 1.03
57 | LHQR | ≤ 0.2
58 | QTAC | ≤ 0.2
59 | WTCS | ≤ 0.2
60 | LPLL | ≤ 0.2
61 | NARI | ≤ 0.2
62 | PKSM | ≤ 0.2
63 | TSSA | ≤ 0.2
64 | SRIM | ≤ 0.2
65 | PRRN | ≤ 0.2
66 | MPEV | ≤ 0.2
67 | DTKL | ≤ 0.2
68 | FLQC | ≤ 0.2
69 | ECRK | ≤ 0.2
70 | VFEG | ≤ 0.2
71 | VLHR | ≤ 0.2
72 | NHKF | ≤ 0.2
73 | NPYG | ≤ 0.2
74 | THCV | ≤ 0.2
75 | AYLT | ≤ 0.2

Row | Variant | one-hybrid fitness for binding parS DNA
76 | QLNS | ≤ 0.2
77 | VCQT | ≤ 0.2
78 | AVLI | ≤ 0.2
79 | LGDC | ≤ 0.2
80 | WHSC | ≤ 0.2
81 | GGMC | ≤ 0.2
82 | EVTY | ≤ 0.2
83 | QLTA | ≤ 0.2
84 | DPHL | ≤ 0.2
85 | HLRE | ≤ 0.2
86 | WFRT | ≤ 0.2
87 | PYCT | ≤ 0.2
88 | MANL | ≤ 0.2
89 | QNLS | ≤ 0.2
90 | SIGR | ≤ 0.2
91 | RTPG | 0.764
92 | SHHG | ≤ 0.2
93 | SSHK | ≤ 0.2
94 | QIAG | ≤ 0.2
95 | NWSS | ≤ 0.2
96 | QPSM | ≤ 0.2
97 | VRDK | ≤ 0.2
